The test system of this test is T. reesei Rut-C30. Description: Northern analysis of transcript levels in treated T. reesei cultures. To be noted: mRNA normalised with gpd; 5 μM A23187, 50 μg/ml BFA or 10 mM DTT. On the procedure: The Trichoderma strains and cultivation conditions have been essentially described elsewhere (Pakula et al. 2000; Ilmén et al 1996). T. reesei strain Rut-C30 (Montenecourt & Eveleigh, 1979) was cultivated on minimal medium ((H4)2SO4 7.6 g l^−1, KH2PO4 15.0 g l^−1, MgSO4.7H2O 0.5 g l^−1, CaCl2.H2O 0.2 g l^−1, CoCl2 3.7 mg l^−1, FeSO4.7H2O 5 mg l^−1, ZnSO4.7H2O 1.4 mg l^−1, MnSO4.7H2O 1.6 mg l^−1, pH adjusted to 5.2 with KOH) that contained lactose 20 g l^−1 as a carbon source. Spore suspension with 2×10^7 spores (stored in −80° C. in 20% glycerol) was inoculated into 200 ml of the medium, grown in shake flasks at 28° C. with shaking at 210 rpm. After 4 days of cultivation the cultures were diluted 1/10 into fresh medium, grown further for 24 h, and treated either with 10 mM dithiothreitol (DTT), 50 μg/ml brefeldin A (BFA) or 5 μM Ca^2+-ionophore A23187. A corresponding volume of the solvent of the stock solution was added into the untreated control cultures (0.2% and 0.5% DMSO for the control cultures for A23187 and BFA treatment, respectively, and double distilled water for the control for DTT treatment). The cultures were divided into aliquots for metabolic labelling of the proteins and for RNA isolation at different time points.
For the Northern analysis mycelial samples were collected from cultures treated with DTT, BFA or A23187 and from the untreated control cultures after 0, 15, 30, 60, 90, 120, 240 and 360 minutes of the treatment. The first sample (the time point 0 min was withdrawn immediately before addition of DTT, BFA or A23187). The mycelium was filtered, washed with equal volume of 0.7% NaCl, frozen immediately in liquid nitrogen, and stored at −80° C. Total RNA was isolated using the Trizol™ Reagent (Gibco BRL) essentially according to manufacturer's instructions. Northern blotting and hybridisation was carried out according to standard procedures (Sambrook et al). Full-length cDNA of the genes were used as probes. […]

As to `CNc1ccc2oc(C[C@H]3O[C@@]4(CC[C@H]3C)O[C@H]([C@H](C)C(=O)c3ccc[nH]3)[C@H](C)C[C@H]4C)nc2c1C(=O)O` [A23187], the “Induction of pdi1 and bip1 genes (UPR)” value is recorded as “no induction”. For the molecule `O[C@H](CS)[C@H](O)CS` (racemic) [DTT, dithiothreitol], the “Induction of pdi1 and bip1 genes (UPR)” value was “induction of pdi1 and bip1 genes”.

Regarding `C[C@H]1CCC/C=C/[C@@H]2C[C@H](O)C[C@H]2[C@H](O)/C=C/C(=O)O1` [BFA, brefeldin A], the “Induction of pdi1 and bip1 genes (UPR)” value was “induction of pdi1 and bip1 genes”.

These data come from patent publication US20040115790A1, “Method for production of secreted proteins in fungi” (priority 2001, published 2004).
